The supplement of paper PMC4604168 (melanoma cell lines)
Some of the results follow. Many values rest on one well or one pass, so single values are uncertain.

What follows are compounds tested on COLO829 (assay: cell count relative to DMSO control; melanoma cells; higher = more viable cells). Conditions: library dose: standard library concentration; 72 h.
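Also: cells treated in 1,536-well plates, then fixed and DAPI-stained, with nuclei counted from automated high-throughput microscope images.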

| Compound | cell count [%] |
| --- | --- |
| CC[C@]1(O)C[C@H]2CN(CCc3c([nH]c4ccccc34)[C@@](C(=O)OC)(c3cc4c(cc3OC)N(C=O)[C@H]3[C@@](O)(C(=O)OC)[C@H](OC(C)=O)[C@]5(CC)C=CCN6CC[C@]43[C@@H]65)C2)C1 [vincristine] + Cn1c(Nc2ccc(C(F)(F)F)cc2)nc2cc(Oc3ccnc(-c4ncc(C(F)(F)F)[nH]4)c3)ccc21 [CHIR265] (first compound 0.0005 µM, partner dose 0.4 µM) | 57.2 |
| Cc1cc(Nc2cc(N3CCN(C)CC3)nc(Sc3ccc(NC(=O)C4CC4)cc3)n2)n[nH]1 [Tozasertib] + Nc1nc(F)nc2c1ncn2[C@@H]1O[C@H](CO)[C@@H](O)[C@@H]1O [fludarabine] (first compound 0.03 µM, partner dose 1 µM) | 88.9 |
| Cc1cc(Nc2cc(N3CCN(C)CC3)nc(Sc3ccc(NC(=O)C4CC4)cc3)n2)n[nH]1 [Tozasertib] + COc1cc(N2CCC(N3CCN(C)CC3)CC2)ccc1Nc1ncc(Cl)c(Nc2ccccc2S(=O)(=O)C(C)C)n1 [NVP-TAE684] (first compound 0.03 µM, partner dose 0.4 µM) | 74.2 |
| Cc1cc(Nc2cc(N3CCN(C)CC3)nc(Sc3ccc(NC(=O)C4CC4)cc3)n2)n[nH]1 [Tozasertib] + C=C(c1ccc(C(=O)O)cc1)c1cc2c(cc1C)C(C)(C)CCC2(C)C [Bexarotene] (first compound 0.03 µM, partner dose 10 µM) | 94.1 |
| Cc1cc(Nc2cc(N3CCN(C)CC3)nc(Sc3ccc(NC(=O)C4CC4)cc3)n2)n[nH]1 [Tozasertib] + CC(=O)O[C@@]12CO[C@@H]1C[C@H](O)[C@@]1(C)C(=O)[C@H](O)C3=C(C)[C@@H](OC(=O)[C@H](O)[C@@H](NC(=O)OC(C)(C)C)c4ccccc4)C[C@@](O)([C@@H](OC(=O)c4ccccc4)[C@H]21)C3(C)C [Docetaxel] (first compound 0.03 µM, partner dose 0.0005 µM) | 40.7 |
